According to article PMC4336329 (PLoS ONE, 2015):
The campaign covered roughly 310,000 compounds. About 14,000 (4.5%) showed an effect of 50% or more. The effect is printed as a negative number. The list shows a part of the results.

Target: human ether-à-go-go-related gene (hERG) potassium channel (human, UniProt Q12809)
Assay: primary screen, population patch clamp on CHO cells stably expressing hERG
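Also: peak tail current of the secondary pulse compared with the same well before compound.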

Chain of human ether-à-go-go-related gene (hERG) potassium channel (Q12809 whole entry, looked up): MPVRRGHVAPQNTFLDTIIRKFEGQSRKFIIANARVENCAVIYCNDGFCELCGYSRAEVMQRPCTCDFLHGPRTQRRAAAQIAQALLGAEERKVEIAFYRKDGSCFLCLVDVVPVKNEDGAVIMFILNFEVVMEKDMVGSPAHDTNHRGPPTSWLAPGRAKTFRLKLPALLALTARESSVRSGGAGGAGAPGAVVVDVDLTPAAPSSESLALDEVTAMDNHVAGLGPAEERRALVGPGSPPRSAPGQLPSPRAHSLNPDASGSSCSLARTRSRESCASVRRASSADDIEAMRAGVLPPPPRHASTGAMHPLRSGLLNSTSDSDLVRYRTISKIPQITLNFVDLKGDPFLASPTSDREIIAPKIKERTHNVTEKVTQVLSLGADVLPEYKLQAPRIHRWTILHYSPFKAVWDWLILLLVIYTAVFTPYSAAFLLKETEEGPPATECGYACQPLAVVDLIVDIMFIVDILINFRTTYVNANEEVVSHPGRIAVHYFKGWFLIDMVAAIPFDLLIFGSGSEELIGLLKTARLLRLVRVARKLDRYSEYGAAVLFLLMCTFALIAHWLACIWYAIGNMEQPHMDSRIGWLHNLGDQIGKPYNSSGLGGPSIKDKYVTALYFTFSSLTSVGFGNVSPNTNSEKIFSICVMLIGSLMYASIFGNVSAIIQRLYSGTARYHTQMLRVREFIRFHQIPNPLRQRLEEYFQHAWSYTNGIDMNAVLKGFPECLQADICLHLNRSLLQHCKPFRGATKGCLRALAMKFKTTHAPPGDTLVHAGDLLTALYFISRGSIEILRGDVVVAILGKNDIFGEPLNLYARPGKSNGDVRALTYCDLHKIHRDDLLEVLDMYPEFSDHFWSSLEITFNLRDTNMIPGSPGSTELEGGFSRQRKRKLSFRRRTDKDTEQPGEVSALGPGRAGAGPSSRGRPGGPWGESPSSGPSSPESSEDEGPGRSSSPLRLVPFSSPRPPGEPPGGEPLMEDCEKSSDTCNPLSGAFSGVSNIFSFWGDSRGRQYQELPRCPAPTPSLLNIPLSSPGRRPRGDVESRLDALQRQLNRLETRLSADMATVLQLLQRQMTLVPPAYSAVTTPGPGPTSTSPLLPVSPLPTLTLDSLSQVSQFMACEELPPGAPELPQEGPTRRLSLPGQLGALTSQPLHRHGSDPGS

Row | SMILES | hERG current change (%, negative = inhibition) at 10uM
1 | CC1(C)SC2c3ccccc3C(=O)N2[C@@H]1C(=O)O (some centres unmarked) | 16.4%
2 | CCCCCCNC(=O)C(C#N)c1nc2ccccc2nc1N1CCOCC1 (centres unmarked) | 4.93%
3 | Cc1cccc(NCc2cccc3ccccc23)n1 | 7.85%
4 | O=C(NCc1ccccc1)c1ccc(F)c(F)c1 | 5.53%
5 | O=C(Nc1ccc2[nH]ccc2c1)c1ccccc1 | 24.3%
6 | CC(C)c1ccccc1NC(=O)CNCCOc1ccccc1F.O=C(O)C(=O)O | -1.11%
7 | COc1cc(C(=O)Nc2ccccc2C2COC(=O)C2=N)cc(OC)c1OC (centres unmarked) | -5.99%
8 | CN(C)c1nc(Oc2ccc(/C=N/O)cc2)nc(N(C)C)n1 | -11.4%
9 | CC12CS(=O)(=O)CC1SC(=S)N2Cc1ccccc1 (centres unmarked) | -15%
10 | CCC(C)(C)NC(=O)C(c1cccc(OC)c1OC)N(Cc1ccc(OC)cc1)C(=O)CCC(=O)Nc1cc(C)on1 (centres unmarked) | 7.48%
11 | CCOCc1nnc(NC(=O)CSc2ccccc2)s1 | -8.58%
12 | COC(=O)c1c(C)oc(C)c1S(=O)(=O)NCc1ccc(Cl)cc1 | -4.74%
13 | COc1ccc(CN(C)C(=O)c2ccc(OCC(=O)Nc3cccc(C(F)(F)F)c3)c(OC)c2)c(OC)c1 | -1.27%
14 | CSc1nnc(C)c(=O)n1COC(=O)c1cc(Cl)ccc1[N+](=O)[O-] | -4.92%
15 | COc1ccc(CNC(=O)CC(C)CC2=NS(=O)(=O)c3ccccc3N2)cc1 (centres unmarked) | 13.5%
16 | COC(=O)c1scc(C)c1NC(=O)CSc1ccc(Cl)cc1 | -7.73%
17 | O=c1oc(-c2ccccc2NS(=O)(=O)c2ccccc2)nc2ccccc12 | 5.12%
18 | CCOC(=O)c1cc(NC(=O)c2cc(C)on2)cc(C(=O)OCC)c1 | 4.18%
19 | COC(=O)/C(=C/c1cccc([N+](=O)[O-])c1)NC(=O)c1ccc(OC)cc1 | -11.5%
20 | Cc1nc(NC(=O)c2ccccc2)sc1-c1csc(Nc2ccc(Cl)cc2)n1 | 14.6%
21 | Cc1ccc(CC2CC(=O)N(CCc3ccc4c(c3)OCO4)C2=O)cc1 (centres unmarked) | 3.17%
22 | Cc1ccc(S(=O)(=O)N2CCN(S(=O)(=O)c3c(C)n[nH]c3C)CC2)cc1C | 13.2%
23 | Cc1ccc(-c2nnc(SCc3ccccc3F)o2)cc1 | -11.9%

Row | SMILES | hERG current change (%, negative = inhibition) at 10uM
24 | COc1ccc(OC)c(/C=C2\Oc3cc(OCC(=O)N4CC(O)C[C@H]4C(=O)O)ccc3C2=O)c1 (some centres unmarked) | 4.97%
25 | CC(CCc1ccco1)NC(=O)CSc1cc(=O)n(C)c2ccccc12 (centres unmarked) | -32%
26 | O=[N+]([O-])c1cc(Cl)cc(/C=N/Nc2nc3ccccc3s2)c1O | 8.39%
27 | Cc1[nH]c(=O)c(C(=O)c2ccccc2O)cc1C(=O)O | 19.8%
28 | CCC1CN(C(=O)N2CCC(C(=O)NCc3ccc(F)cc3)CC2)c2ccccc2O1 (centres unmarked) | -37.5%
29 | O=C(NCCCO)/C(=C/c1ccc(-c2cccc([N+](=O)[O-])c2)o1)NC(=O)c1ccccc1 | -31.5%
30 | Cc1cc(C)cc(NC(=O)CN2CCC(NC(=O)Cc3ccccc3)CC2)c1 | -25.4%
31 | Cc1cc(C)nc(N2CCC(C(=O)Nc3ccc(Oc4ccccc4)cc3)CC2)n1 | 11.2%
32 | Cc1nnc(NC(=O)CC23CC4CC(CC(C4)C2)C3)s1 | 7.75%
33 | CCc1noc(C)c1C(=O)N(C)CC(=O)Nc1ccc(Br)cc1C | 1.66%
34 | CCc1nc(NCC(C)C)c(C#N)c2c1COC(C)(C)C2 | 9.05%
35 | C/C(=N/NC(=O)CNS(=O)(=O)c1ccccc1)c1ccc(Br)cc1 | 4.79%
36 | Cn1c(CNS(=O)(=O)c2ccc(F)cc2)n[nH]c1=S | 22.3%
37 | Cc1ccccc1S(=O)(=O)N1CCN(C)CC1 | 13.5%
38 | CC(C)(C)NC(=O)CN(C(=O)CS(=O)CC(=O)Nc1ccc(F)cc1)c1ccccc1F (centres unmarked) | 3.16%
39 | COc1ccc(OC)c(NC(=O)CSc2nnc(-c3ccco3)o2)c1 | -15.7%
40 | Cc1cccc(OCC(=O)NC(=S)Nc2ccc(S(=O)(=O)NC3CCCCC3)cc2)c1 | 12.3%
41 | O=C(/C=C/Nc1ccc(F)c(F)c1)c1ccc(Br)cc1 | -36%
42 | COc1ccc(C2C(C(=O)c3ccco3)=C(O)C(=O)N2CCCn2ccnc2)c(OC)c1 (centres unmarked) | 18.2%
43 | CC(=O)c1cc(-c2ccccc2)n(CC(=O)NC2CCCC2)c1C | -3.17%
44 | O=C(Cn1c(=O)oc2cc(S(=O)(=O)N3CCCC3)ccc21)N1CCCC1 | 4.56%
45 | Cc1cc(C)c2c(=O)[nH]c(SCC(=O)c3ccc(C(C)C)cc3)nc2n1 | 6.4%
46 | N#Cc1c(N)c(C#N)c(-c2ccc3c(c2)OCO3)c2c1CCCC2 | 5.73%

Row | SMILES | hERG current change (%, negative = inhibition) at 10uM
47 | CCCCNC(=O)CSc1nnc(Cc2ccccc2)n1CC1CCCO1 (centres unmarked) | 11%
48 | CCC(C)NCCOCCSc1ccc(Cl)cc1.O=C(O)C(=O)O (centres unmarked) | -46.9%
49 | Nn1cc(-c2ccccc2)nc1SCC(=O)NC1CCS(=O)(=O)C1 (centres unmarked) | 6.53%
50 | NNC(=O)c1ccc(Oc2cc(Cl)cc(Cl)c2)o1 | 1.1%
51 | Cc1cccc(C(=O)NCC(=O)OCC(=O)N(C)CC(=O)Nc2ccccc2Cl)c1 | -40.5%
52 | CCOC(=O)c1c(C)nn(Cc2cccc(Cl)c2)c1N | -18.1%
53 | O=C(Nc1ccc2c(c1)OCCO2)c1cccc(S(=O)(=O)N2CCOCC2)c1 | -16.4%
54 | CCOc1ccc(OCCC(=O)OC(C)C(=O)Nc2ccc(C(C)=O)cc2)cc1 (centres unmarked) | 8.72%
55 | CC1(C)CCC(=O)N(c2ccc(OC(F)(F)F)cc2)C1=O | 18.6%
56 | CC1=C(C(=O)Nc2cccnc2)C(c2cccnc2)n2nc(-c3cccs3)nc2N1 (centres unmarked) | 9.78%
57 | CCCc1nc(SCC(=O)Nc2nnc(SCC)s2)c2c(=O)n(C)c(=O)n(C)c2n1 | 3.68%
58 | COc1ccccc1NC(=O)C12CC3CC(C1)CC(c1ccc(C)cc1)(C3)C2 | 12.6%
59 | Cc1ccc(NC(=O)CSc2nnc(-c3cnccn3)n2C)cc1C | -5.78%
60 | CCN(CC)CCCNC(=O)c1cn(CC(C)C)c(=O)c2c1c1ccccc1n2C | -17.2%
61 | O=[N+]([O-])c1ccc(N2N=C(c3ccccc3)CC2c2ccccc2O)cc1 (centres unmarked) | 12.7%
62 | COc1ccccc1-c1oc2ccccc2c1C#CCCCCO | 22.6%
63 | CS(=O)(=O)N(CC(=O)N1CCC(C(N)=O)CC1)C1CCCCC1 | 4.86%
64 | CC(NC(=O)CCc1ccc(S(=O)(=O)NC2CCCCC2)cc1)c1ccccc1 (centres unmarked) | 1.12%
65 | Cc1ccc(CS(=O)Cc2ccc(C(=O)NCC(C)c3ccccc3)o2)cc1 (centres unmarked) | -25.8%
66 | CC(=O)Nc1nc(C)c(C(C)C)s1 | 7.77%
67 | C/C(=N/NC(=O)CNC(=O)c1cccnc1)c1ccc(Cl)c(Cl)c1 | -1.98%
68 | O=C(O)C1=C[C@@H](C2CCCCC2)C[C@@H](OCc2ccc(CO)cc2)O1 | 3.31%
69 | CCOC(=O)Cc1csc(NC(=O)CN2CCOCC2)n1 | 14.1%

Row | SMILES | hERG current change (%, negative = inhibition) at 10uM
70 | CC1CCCCN1C(=S)NC(=O)c1ccccc1 (centres unmarked) | 6.66%
71 | O=C(NC1CCS(=O)(=O)C1)/C(=C/c1ccc(Cl)cc1)NC(=O)c1ccccc1 (centres unmarked) | -55%
72 | O=C(CNC(=O)c1ccc(-c2ccccc2)cc1)OCc1ccc(Cl)cc1 | 8.06%
73 | O=C(COc1ccc2c(-c3ccccc3)cc(=O)oc2c1)NCc1ccccn1 | -10.7%
74 | O=Cc1ccc2noc(-c3ccc(F)cc3)c2c1 | -21.3%
75 | Cc1ncccc1C(=O)N1CCCC(C(=O)c2ccc3c4c(cccc24)CC3)C1 (centres unmarked) | -13.2%
76 | O=C(NCC(c1ccco1)N1CCN(c2ccc(F)cc2)CC1)C(=O)NC1CCCC1 (centres unmarked) | 20%
77 | Cc1ccc(-c2nnc3n2CCCCC3)cc1 | 1.57%
78 | O=[N+]([O-])c1ccc(S(=O)(=O)N/N=C/c2ccsc2)cc1 | 10.6%
79 | Oc1ccc2c(c1)oc1cc(O)ccc12 | 21.2%
80 | CCCCNC(=S)N/N=C/c1ccccc1F | 2.81%
81 | CN(Cc1ccccc1)C(=O)CCSc1nc(-c2ccc3c(c2)OCO3)cc(C(F)(F)F)n1 | 6.4%
82 | COc1cccc2c1OCC(CN1CCN(C3CCCCC3)C(CCO)C1)=C2 (centres unmarked) | -17%
83 | COC(=O)CC[C@@H](C(=O)O)N1C(=O)c2ccccc2C1=O | 6.23%
84 | O=C(O)Cn1cccc1C(=O)c1ccccc1 | -21.6%
85 | CCOC(=O)C(C)Oc1ccc(OCc2ccccc2)cc1 (centres unmarked) | 20.1%
86 | CCN(CC)S(=O)(=O)c1ccc(N2CCOCC2)c(NC(=O)CNCCc2ccccc2)c1.O=C(O)C(=O)O | -63.8%
87 | CCc1noc(C)c1C(=O)Nc1nc2c(C)cccc2s1 | -4.92%
88 | COc1cccc(-c2ccc(-c3noc(-c4ccccc4F)n3)c(OC)n2)c1 | -5.94%
89 | NNC(=O)c1cnn(-c2ccccc2)c1C(F)(F)F | 22.7%
